The campaign covered roughly 44,000 compounds. About 340 (0.77%) were called active. Inconclusive results (about 5%) are left out. The call rests on the fitted dose curve; in most records, active means well fitted inhibition curve with a large enough effect; inconclusive means small, poorly fitted or top-dose-only effect; inactive means flat fitted curve, though single readings scatter. The list shows a part of the results.
Assay: Acumen qHTS Assay for Inhibitors of the mTORC1 Signaling Pathway in MEF (Tsc2-/-, p53-/-) Cells: Sytravon;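 further: plate controls were DMSO for no effect and rapamycin for full effect; nearly all actives have a fitted effect of over 50% in size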
Conditions: phospho-rpS6 immunofluorescence/PI, 24 h; series mostly up to 38.3 µM; activity change, negative = inhibition: at the top concentration
How it was run: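 Immunofluorescence of rpS6 phosphorylation in Tsc2-/-, p53-/- MEFs after 24 h compound exposure, normalized to propidium iodide signal. Activity is expressed as % positive cells, thresholded with 7.5 nM rapamycin.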

Activity change, negative = inhibition, inactive:
COc1cccc(NC(=O)CSc2nnc3[nH]c(=O)cc(-c4ccccc4)n23)c1 0.464%, CCCc1nc2nc(C)c(NS(=O)(=O)c3ccc(C)c(C)c3)c(=O)n2[nH]1 -3.5%, COc1ccc(CCNc2oc(/C=C/c3ccc(OC)c(OC)c3)nc2C#N)cc1 -19.2%, CCCCOc1ccc(C(=O)NCCS(=O)(=O)N2CCN(c3ccccc3OC)CC2)cc1 5.28%, Cc1ccc2oc(-c3cc(NC(=O)Cc4ccccc4)ccc3Cl)nc2c1 -4.53%, O=C(NC1CC(=O)N(c2ccc(F)cc2)C1)c1ccc(S(=O)(=O)N2CCCC2)cc1 (configuration not stated) -4.09%, CCN(C(=O)CSc1nc2ccccc2nc1Cc1cccc(OC)c1)c1cccc(C)c1 -31.3%, O=C(COc1ccc(Cl)cc1)Nc1ccc(O)c(-c2nc3ccccc3s2)c1 -1.61%, Cc1ccc(Cn2c(C(=O)O)c(CNCCc3cccs3)c3ccc(C)cc32)cc1 0.203%, Cc1ccc(NC(=O)Nc2nc3c(s2)CCCCCC3)cc1C -17.1%, COc1ccccc1NC(=O)c1ccc2[nH]c(C)cc(=O)c2c1 -0.531%, Cc1cc(Br)ccc1NC(=O)COc1cc(=O)n(C)c2ccccc12 -0.386%, O=c1c2sc3ccccc3c2n(Cc2ccccc2F)c(=O)n1-c1ccccc1Cl -10.7%, Cc1ccccc1NC(=O)c1c(C)oc2ccc(O)c(CN3CCCC(C)C3)c12 (configuration not stated) -17.8%, COc1cccc(CNC(=O)CSc2nc3ccccc3nc2Cc2ccccc2)c1 2.35%, COc1cc2c(cc1OC)C(c1ccc(F)cc1)N(c1ccccc1)C(=O)C2 (configuration not stated) -0.827%, Cc1nnc(N2CCC(C(=O)NCc3ccc(F)cc3)CC2)c2nn(-c3ccc(Cl)cc3)c(C)c12 -7.52%, Cc1ccc2c(c1)cc(C(=O)NCc1ccc(F)cc1)n2C -13.3%, COc1ccccc1N1CCN(c2ccc(=O)n(CC(=O)O)n2)CC1 -4.92%, CCOCC(=O)Nc1ccc(-c2cn3c(C)csc3n2)cc1 0%, COc1cccc(CNc2ncnc3c2nnn3C)c1 -3.24%, CNC(=O)C1CCC(Cn2c(=O)c3sccc3n(CC(=O)N3CCCC3)c2=O)CC1 (configuration not stated) 4.82%, CCN(C(=O)CSc1nc(-c2ccccc2)no1)c1cccc(C)c1 6.08%, Cc1cccc2cc(CN(C(=O)c3cccc(Cl)c3)c3ccccc3)c(=O)[nH]c12 -6.16%, CCOc1ccc(C2C(C(N)=O)=C(C)Nc3nc(-c4ccc(OC)cc4)nn32)cc1 (configuration not stated) 1.1%, COc1ccccc1C(=O)Nc1cccc(OCc2cc(=O)n3c4c(sc3n2)CCCC4)c1 0.154%, COc1ccccc1Nc1nn2c(=O)c3ccc(C(=O)NC4CCC(C)CC4)cc3nc2s1 (configuration not stated) -0.345%, Cc1cc2ccccc2n1CCNC(=O)c1ccccc1F -0.262%, O=c1c2sc3ccccc3c2n(Cc2ccc(F)cc2)c(=O)n1Cc1ccco1 0.0756%, O=C(NCC(c1ccc2c(c1)OCO2)N1CCN(c2ccccc2)CC1)C(=O)Nc1ccccc1 (configuration not stated) 2.63%, CC(C)c1ccc(S(=O)(=O)c2nnn3c2nc(NCc2cccs2)c2sccc23)cc1 -5.34%, COc1ccc(C(=O)Nc2ccccc2)cc1S(=O)(=O)Nc1ccc(Br)cc1 -0.0762%, O=C(OCc1cc(=O)n2nc(C3CC3)sc2n1)c1ccc(NC(=O)c2ccccc2Cl)cc1 5.17%, Cc1c(C(=O)Nc2ccccc2)sc2nc(-c3cc4ccccc4oc3=O)[nH]c(=O)c12 -1.22%, CCc1ccc2oc(C(=O)Nc3cc(Cl)ccc3OC)cc(=O)c2c1 -3.9%, Cc1ccc(NC(=O)CCn2nc(-c3ccccc3)c3ccccc3c2=O)c(C)c1 11.6%, O=C(Nc1ccc2nc(SCC(=O)N3CCCc4ccccc43)sc2c1)c1ccccc1F -14.8%, CCc1ccc(C2=C(C)C(N3CCC(C(=O)Nc4ccc(F)cc4)CC3)=NS2(=O)=O)cc1 -25.6%, O=C(Nc1cccc(C(=O)N2CCN(c3ccccc3)CC2)c1)c1nsc2ccccc12 2.38%, CCCCNC(=O)CCCn1c(=O)c2ccccc2n(Cc2ccc(Cl)cc2)c1=O 3.95%, COc1ccc(C2CC(=O)c3cnc4c(-c5ccccc5)c(C)nn4c3C2)c(OC)c1 (configuration not stated) 3.99%, COc1ccc2c(c1)c1c(c(=O)n(-c3ccc(OC)c(OC)c3)c(=O)n1Cc1ccc(C)cc1)n2C 0.443%, Cc1cc2c(cc1C)-n1c(-c3ccccc3)c3c(=O)n(C)c(=O)n(C)c3c1C(c1ccco1)N2 (configuration not stated) -19.4%, CC(C)(C)OC(=O)N1CCC(c2c(C(=O)N3CCOCC3)cnn2-c2ccccc2Cl)CC1 -17.4%, CCc1c(C)nc2nncn2c1Nc1cccc(C)c1 1.04%, COc1ccc(-c2nc(SCC(=O)Nc3cccc(C(C)=O)c3)n[nH]2)cc1 -5.13%, Fc1ccc(-c2noc3ncnc(N4CCCCC4)c23)cc1 -8.36%, O=C(Cc1ccccc1)Nc1cc(-c2nc3cc(Cl)ccc3o2)ccc1Cl -4.16%, COc1ccc(Cc2nc3ccc(C(=O)NCc4cc(Br)ccc4OC)cc3o2)cc1 0.436%, CCOC(=O)c1c(NC(=O)CS(=O)(=O)c2ccc(Cl)cc2)sc2c1CCCC2 0.915%, COc1ccc(CCC(=O)NCc2nc3cccnc3n2Cc2ccc(OC)cc2)cc1 -1.73%, CNC(=O)C1CCN(C(=O)N2CC(C)Oc3ccc(C)cc32)CC1 (configuration not stated) 3.23%, CCOC(=O)c1c(NC(=O)c2cc(=O)c3c(C)cc(C)cc3o2)sc2c1CCC2 6.49%, COc1ccc(-c2cc(C(=O)OCC(=O)c3cccc(OC)c3)c3cccc(Cl)c3n2)cc1 -9%, COc1ccccc1N(C)C(=O)Cn1c(=O)oc2cc(S(=O)(=O)N3CCCC3)ccc21 -7.17%, Cc1ccccc1CNC(=O)C1CCCN(c2nnc(-n3c(C)ccc3C)s2)C1 (configuration not stated) -9.56%, Cn1c(=O)c2c(ncn2CC(=O)Nc2cc(Cl)cc(Cl)c2)n(C)c1=O -18.3%, Clc1ccc(CCNC(c2cccc(Cl)c2)c2nnc(-c3ccccc3)o2)cc1 (configuration not stated) -10.9%, Cn1cc(S(=O)(=O)N2CCCCCC2)cc1C(=O)N1CCN(c2ccc(Cl)cc2)CC1 -1.9%, CCOC(=O)c1cc(-c2ccccc2)n(CCCC(=O)Nc2ccc(C)c(C)c2)c1C -16.4%, Cc1nn(C)c2c1c(C(F)(F)F)cc(=O)n2C(C)C(=O)N1CCN(c2ccccc2)CC1 (configuration not stated) -16.3%, CC1=C(C(=O)Nc2ccccc2)C(c2ccccc2Cl)n2ncc(C(=O)Nc3cccc(C)c3)c2N1 (configuration not stated) -3.15%
